# Laboratory results taken from PubChem BioAssay AID493208 (National Center for Advancing Translational Sciences (NCATS), 2011).
# Out of some 44,000 compounds screened, about 340 (0.77%) were called active. Inconclusive results, whose numbers are uncertain, are shown with a selection of clear calls. Calls follow the shape of the dose curve; as a rule, active = well fitted inhibition curve with a large enough effect; inconclusive = small, poorly fitted or top-dose-only effect; inactive = flat fitted curve, though single readings scatter. Potencies of inconclusive entries are left out as doubtful fits.
# Experiment: Acumen qHTS Assay for Inhibitors of the mTORC1 Signaling Pathway in MEF (Tsc2-/-, p53-/-) Cells: Sytravon; also: nearly all actives have a fitted effect of over 50% in size
# Conditions: phospho-rpS6 immunofluorescence/PI, 24 h; series mostly up to 38.3 µM
# How it was run: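 Plate MEFs (Tsc2-/-, p53-/-, empty vector) in DMEM/10% FBS; after 24 h add compound, incubate 24 h at 37 degree Celsius; fix in PFA/TX-100, block, stain phospho-rpS6 and 10 uM PI; scan at 488 nm; report % positive cells.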
# Potency is read from the fitted curve at half-maximal effect; tags tell the direction and shape of the fitted curve.
row,SMILES,Potency
1,Cc1ccc(OCC(=O)Nc2ccc(S(=O)(=O)Nc3cc(C)on3)cc2)c(Br)c1,"inconclusive [falling, partial curve, poor fit]"
2,Cc1cc(C)cc(NC(=O)C2CCCN2S(=O)(=O)c2ccc3nc(-c4ccccc4)[nH]c3c2)c1 (centres undefined),"inconclusive [falling, single point]"
3,CC1=C(c2ccc(C(C)C)cc2)S(=O)(=O)N=C1N1CCC(C(=O)Nc2ccc(C)cc2)CC1,"inconclusive [falling, full curve, poor fit]"
4,COc1ccc(C(=O)NCC(c2ccc(Cl)cc2)N2CCCCC2)cc1 (centres undefined),"inconclusive [falling, single point]"
5,CCOC(=O)c1ccc(N2C(=O)c3[nH]nc(-c4ccc(OC)cc4)c3C2c2cccc(O)c2)cc1 (centres undefined),"inconclusive [falling, partial curve, poor fit]"
6,COc1ccccc1NC(=O)Cn1nnc(C(=O)NCc2cccs2)c1N,inactive
7,COc1ccc(CCNC(=O)c2ccc(Cn3c(=O)c4cccn4c4cccnc43)cc2)cc1OC,"inconclusive [falling, single point]"
8,CCCCN(C)C(=O)CSc1c2c(nc3ccc(Cl)cc13)CCCC2,active: 18.5 µM
9,CCc1nn(CC(=O)NCc2ccccc2)c(=O)c2cccn12,"inconclusive [falling, partial curve]"
10,Cc1ccc(-n2ncc3c(N4CCN(c5ccccc5)CC4)ncnc32)cc1C,inactive
11,CCOc1ccc(NC(=O)c2cc3sc(Cl)cc3n2CC)cc1,inactive
12,CCC1CN(C(=O)NCc2cccc(OC)c2)c2cc(Cl)ccc2O1 (centres undefined),"inconclusive [falling, partial curve]"
13,CCCCC1CCC(C(=O)N2CC(=O)Nc3ccc(F)cc3C2c2ccc(F)cc2)CC1 (centres undefined),"inconclusive [falling, single point]"
14,CCOc1ccc(NC(=O)CSc2oc(-c3ccco3)nc2S(=O)(=O)c2ccc(C)cc2)cc1,inactive
15,CCCN1CCN(CCCNC(=O)c2cc3c(Cl)nc4ccccc4c3s2)CC1,inactive
16,Cc1ccccc1-c1noc(-c2ccc(N3CCN(c4ccccc4)CC3)c([N+](=O)[O-])c2)n1,inactive
17,CC(=O)OCc1cc(=O)n2nc(C3CCCCC3)sc2n1,"inconclusive [falling, full curve, poor fit]"
18,CCc1ccc(-c2cn3nc(CC)sc3n2)cc1,"inconclusive [falling, partial curve, poor fit]"
19,CCOc1ccc(/C=C/C(=O)Nc2ccc3nc(N(CC)CC)cc(C)c3c2)cc1OC,active: 13.1 µM
20,Cc1nn2c(C)c(C(=O)NCCc3ccccc3)cnc2c1-c1ccccc1,"inconclusive [falling, partial curve, poor fit]"
21,O=C(NCC1CCN(Cc2ccccc2F)CC1)Nc1ccc(F)c(Cl)c1,"inconclusive [falling, partial curve]"
22,CSc1ccc(CCNC(=O)CCCn2c(=O)c3cccn3c3ccccc32)cc1,"inconclusive [falling, single point]"

row,SMILES,Potency
1,O=C1c2[nH]nc(-c3ccc(F)cc3)c2C(c2ccccc2F)N1c1ccccc1 (centres undefined),"inconclusive [falling, partial curve]"
2,CCOc1ccc(-c2nonc2NC(=O)c2oc3ccc(CC)cc3c2C)cc1,"inconclusive [falling, partial curve, poor fit]"
3,COc1cccc(NC(=O)C2CCC(CNS(=O)(=O)c3csc(C(N)=O)c3)CC2)c1 (centres undefined),"inconclusive [falling, partial curve, poor fit]"
4,Cc1ccc(NS(=O)(=O)c2ccc3oc(=O)c4ncn(C)c4c3c2)cc1C,"inconclusive [falling, partial curve, poor fit]"
5,CCOc1ccccc1NS(=O)(=O)c1ccc(N2CCCCS2(=O)=O)cc1,"inconclusive [activator, partial curve, poor fit]"
6,O=C(Nc1ccc(Br)cc1)c1cc(S(=O)(=O)NC2CCCC2)ccc1F,"inconclusive [falling, single point]"
7,COc1nnc(-c2ccc(N3CCCCC3)c(NC(=O)c3ccc(C)cc3)c2)c2ccccc12,inactive
8,Cc1ccc2nc(Cl)c3cc(C(=O)NCCCN(C)Cc4ccccc4)sc3c2c1,"inconclusive [falling, single point]"
9,Cc1ccccc1Cn1c(=O)n(CC2CCC(C(=O)N3CCOCC3)CC2)c(=O)c2sccc21 (centres undefined),inactive
10,COc1ccccc1CNC(=O)CCn1cnc2ccccc2c1=O,"inconclusive [falling, full curve, poor fit]"
11,Cc1ccc(N2CCN(C(=O)c3cnn(-c4ccc(C)c(C)c4)c3C3CCNCC3)CC2)c(C)c1,"inconclusive [falling, single point]"
12,CCc1ccc(S(=O)(=O)c2cn(CC)c3cc(N4CCCCC4)c(F)cc3c2=O)cc1,inactive
13,Nc1c(C(=O)NCc2ccc(Cl)cc2)sc2nc(-c3ccc(F)cc3)ccc12,inactive
14,COC(=O)c1cc2sccc2n1CC(=O)Nc1cc(Cl)ccc1OC,inactive
15,CCOc1ccccc1Oc1nc(C)nc2c1oc1ccccc12,"inconclusive [falling, partial curve, poor fit]"
16,Cc1ccc(S(=O)(=O)C(CNS(=O)(=O)c2ccc(F)c(C(F)(F)F)c2)c2ccco2)cc1 (centres undefined),"inconclusive [falling, single point]"
17,CCOc1ccc(CNCc2c(C(=O)O)n(Cc3ccccc3C)c3cc(OC)ccc23)cc1OC,"inconclusive [falling, single point]"
18,Cc1ccc2onc(CNC(=O)N3CCN(c4cccc(C(F)(F)F)c4)CC3)c2c1,inactive
19,CCCC1=Nc2cc(C(=O)NCCOC)ccc2Sc2ccccc21,"inconclusive [falling, full curve]"
20,O=C(Cn1c(-c2cccs2)cc2cc(F)ccc21)NCCCN1CCN(c2ccc(F)cc2)CC1,inactive
21,COCCCNC(=O)NC(CCC(C)C)c1c(-n2cccc2)sc2c1CCN(C)C2 (centres undefined),inactive
22,CCC1CCCCN1S(=O)(=O)c1ccc(NC(=O)c2cc(=O)c3c(C)cc(C)cc3o2)cc1 (centres undefined),inactive

row,SMILES,Potency
1,O=C(NCCN1CCN(c2ccccc2)CC1)Nc1cccc(Br)c1,"inconclusive [falling, single point]"
2,COc1ccc(-c2noc(N(c3ccc(F)c(Cl)c3)c3nc(-c4ccc(OC)c(OC)c4)no3)n2)cc1OC,"inconclusive [falling, partial curve, poor fit]"
3,COc1ccc(-c2nc3cc(C(C)C)ccc3o2)cc1NC(=O)c1ccccc1[N+](=O)[O-],"inconclusive [falling, full curve]"
4,Cc1ccc(Cn2c(CN3CCC(C(=O)NCc4ccccc4C)CC3)cc3ccccc32)cc1,inactive
5,CCOc1ccccc1CNC(=O)CCn1c(=O)c2cccn2c2ccc(F)cc21,"inconclusive [falling, partial curve, poor fit]"
6,Cc1ccc(CNc2nc(-c3ccco3)nn2S(C)(=O)=O)cc1,"inconclusive [falling, partial curve, poor fit]"
7,COc1ccc(NC(=O)C2COc3ccccc3C2)cc1Cl (centres undefined),"inconclusive [falling, partial curve, poor fit]"
8,CC(C)Cc1ccc(S(=O)(=O)N2CCC(c3ccncc3)CC2)cc1,active: 18.5 µM
9,CCC(C)NC(=O)CSc1nc2cc3c(cc2c(=O)n1CCCC(=O)NCCc1ccc(OC)c(OC)c1)OCO3 (centres undefined),"inconclusive [falling, partial curve, poor fit]"
10,Cc1ccccc1OCCCCn1c(-c2ccc(Cl)cc2)nc2ccccc2c1=O,"inconclusive [falling, single point]"
11,Cc1ccc(C2c3c(-c4ccccc4O)n[nH]c3C(=O)N2CCCO)cc1 (centres undefined),"inconclusive [falling, partial curve, poor fit]"
12,Cn1nnnc1SCCNCc1ccccc1OCc1ccccc1F,inactive
13,CC(=O)c1ccc(N2CCN(S(=O)(=O)c3ccc4c(c3)CC(C)N4C(=O)C3CCC3)CC2)cc1 (centres undefined),inactive
14,COc1ccccc1C(=O)Nc1c(C(=O)N(CCN(C)C)Cc2ccco2)oc2ccccc12,"inconclusive [falling, single point]"
15,CCN1CCN(c2cc(C)c3cc(NC(=O)c4cccc(C(F)(F)F)c4)ccc3n2)CC1,"inconclusive [falling, partial curve, poor fit]"
16,COc1cc(OC)c(NC(=O)CCCn2nc(C)c3sc4ccccc4c3c2=O)cc1Cl,"inconclusive [falling, full curve, poor fit]"
17,CCOc1ccc(NC(=O)N2CC=C(c3c[nH]c4ccccc34)CC2)cc1,"inconclusive [falling, partial curve]"
18,CCCNC(=O)C1CCC(Cn2c(=O)c3sccc3n(Cc3ccccc3C)c2=O)CC1 (centres undefined),"inconclusive [falling, full curve]"
19,CCc1ccc(NC(=O)c2cc(S(=O)(=O)N3CCCCCC3)ccc2F)cc1,"inconclusive [falling, partial curve, poor fit]"
20,Cc1ccc(-c2csc(-c3cc4c([nH]c3=O)CC(c3ccccc3)CC4=O)n2)cc1 (centres undefined),"inconclusive [falling, partial curve]"
